This note sets out measurements from PubChem BioAssay AID488969 (Vanderbilt High Throughput Screening Facility, 2010).

Structures are written as SMILES. Over roughly 110,000 compounds, “z-score” has its median near -0.1; the highest 2% begin near 2. Some of the results follow. Active and inactive are the calls of the source.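 How the source made its calls: active means z-score in the third read window above 3 or below -3; inactive means the rest.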

The test concerns the target Metabotropic glutamate receptor 8 (Rattus norvegicus) (UniProt P70579). Put plainly: mGluR8 Gi/Go-coupled signaling modulation – cell-based, rat, thallium flux, HTS, primary screen (AID 488969). As to conditions: HEK293 rat mGluR8, GIRK (G protein-gated inwardly rectifying potassium channel) thallium flux, FluoZin2; at 10 µM; stronger effect = higher value; submaximal glutamate (EC20) added with thallium.
Chain of UniProt P70579 (P70579 whole entry, looked up): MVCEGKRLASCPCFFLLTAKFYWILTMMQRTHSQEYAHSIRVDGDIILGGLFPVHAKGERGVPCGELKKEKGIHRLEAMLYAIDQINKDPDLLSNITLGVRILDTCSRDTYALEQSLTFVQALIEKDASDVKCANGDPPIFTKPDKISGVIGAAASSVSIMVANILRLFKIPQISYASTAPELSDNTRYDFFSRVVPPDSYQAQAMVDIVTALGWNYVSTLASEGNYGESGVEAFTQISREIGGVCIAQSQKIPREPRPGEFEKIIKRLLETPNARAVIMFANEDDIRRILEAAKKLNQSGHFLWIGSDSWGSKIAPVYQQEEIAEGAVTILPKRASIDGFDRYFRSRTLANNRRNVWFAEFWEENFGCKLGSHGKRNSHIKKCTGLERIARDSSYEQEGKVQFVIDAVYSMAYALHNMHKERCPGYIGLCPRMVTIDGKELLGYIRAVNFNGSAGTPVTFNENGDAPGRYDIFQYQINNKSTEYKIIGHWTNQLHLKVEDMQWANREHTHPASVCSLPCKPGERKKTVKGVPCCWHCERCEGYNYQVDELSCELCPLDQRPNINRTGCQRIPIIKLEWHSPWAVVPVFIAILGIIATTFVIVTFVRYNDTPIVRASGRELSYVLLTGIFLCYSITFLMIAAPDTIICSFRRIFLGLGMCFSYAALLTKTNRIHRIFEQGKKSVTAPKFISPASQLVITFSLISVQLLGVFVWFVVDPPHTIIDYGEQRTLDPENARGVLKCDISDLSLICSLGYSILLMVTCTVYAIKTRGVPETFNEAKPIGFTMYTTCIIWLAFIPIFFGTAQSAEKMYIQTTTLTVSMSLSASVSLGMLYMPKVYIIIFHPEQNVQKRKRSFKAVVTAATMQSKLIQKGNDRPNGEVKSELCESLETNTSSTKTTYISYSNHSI
Compound `CC(OC(=O)c1ccccc1NS(=O)(=O)c1cccc(N)c1)C(=O)N(C)Cc1ccccc1` (stereo not drawn) displayed a z-score of 0.0162. The value for `COC(=O)c1c(NC(=O)CN2CCN(S(=O)(=O)c3ccccc3)CC2)sc2c1CCC(C)C2` (stereo not drawn) was -0.486; that for `Cn1c(=O)oc2cc(S(=O)(=O)Nc3ccc4c(c3)OCCO4)ccc21` was 0.0505. `CC(=O)Nc1ccc(/C(C)=N/NS(=O)(=O)c2ccccc2)cc1` returned a z-score of -0.0967. For `O=C(NCC(=O)N(CC1CCCO1)C(C(=O)NC1CCCCC1)c1ccccc1)c1cccs1` (stereo not drawn), the z-score was -0.0826. The value for `Cc1ccc(Sc2ccc(NC(=O)CCl)cc2)cc1C` was -0.101; that for `CCOC(=O)c1cnn(-c2cc(C)nc3c(-c4ccccc4)c(C)nn23)c1N` was 0.147. The value for `O=C(CN(Cc1ccc(F)cc1)C(=O)Cn1nnc2ccccc21)NCC1CCCO1` (stereo not drawn) was -0.645; that for `CSc1ccccc1NC(=O)c1ccccc1N(C)S(C)(=O)=O` was -0.0234. The value for `CCc1ccc(NC(=O)CN(c2ccc3c(c2)OCO3)S(=O)(=O)c2c(C)noc2C)cc1` was -0.106; that for `Cc1oc(-c2cc(Cl)cc(Cl)c2)cc1C(=O)NCCc1ccccc1` was -0.179. Regarding `O=S(=O)(/C=C/c1ccccc1)n1cnc2ccccc21`, the z-score is -0.0615. The value for `CC(C)CNC(=O)c1cccc(NC(=O)c2ccco2)c1` was -0.479; that for `CCCCn1nc2cc(C(=O)NCC3CC3)ccc2c1OCC` was 0.279. The value for `O=C(CSc1nnc2n1CCCN2C(=S)Nc1ccc(Cl)cc1)c1ccccc1` was -0.14; that for `O=C(CSC1=NC(=O)C(c2ccccc2)C(=O)N1)Nc1ccccc1Cl` (stereo not drawn) was -0.614; that for `OCCOCCNc1ncnc2c1cnn2-c1ccccc1` was 0.137. The value for `Cc1sc2nc(C(C)C)oc(=O)c2c1C` was 0.56; that for `O=C(C1=NN[C@@H]2C(=O)N(c3cccc(C(F)(F)F)c3)C(=O)[C@H]12)c1ccc2ccccc2n1` was -0.547; that for `COc1ccc(N2CCN(Cc3nc(-c4ccc(Cl)cc4Cl)no3)CC2)cc1` was -0.276. The compound `CCC(Sc1nc(=O)cc(N)n1-c1ccccc1)C(=O)Nc1cc(C)on1` (stereo not drawn) displayed a z-score of -0.0468. The value for `CN(C)c1ccc(/C=C2\SC(=O)N(CC(O)Cn3c4ccccc4c4ccccc43)C2=O)cc1` (stereo not drawn) was 0.115; that for `C=CCn1c(SCC(=O)c2ccc(OC)cc2)nnc1-c1cc2cccc(OC)c2o1` was -0.346; that for `CCCc1cc(C(=O)NNC(=S)NCC)c2ccccc2n1` was -0.123. The compound `O=c1c(-c2ccc(F)cc2)coc2c3c(ccc12)OCCO3` returned a z-score of -2.73. Consider `CCOC(=O)C1CCN(C(=O)C2CCN(c3nc4ccc(OC)cc4s3)CC2)CC1`, for which the z-score was -1.52.

In turn, `O=C(c1cccs1)N1CCN(c2ccc(F)cc2)CC1` came in with a z-score of 0.0587. The value for `Cc1ccc(Oc2ccc(NC(=O)CSc3n[nH]c(N)n3)cc2)cc1` was -0.066.

As for `Cc1cccc2sc(NC(=O)CN(C)S(=O)(=O)c3ccc(Br)s3)nc12`, the z-score is 0.241. The value for `CCOc1cccc(CNc2ccc(O)cc2)c1OCc1ccc(Cl)cc1Cl` was -0.117; that for `CCc1nccn1S(=O)(=O)c1cc(C)c(OC)cc1C` was -0.0861; that for `Cc1nc2sc3c(NCc4ccco4)ncnc3c2c2c1COC(C)(C)C2` was -0.61. The value for `CCC(=O)Oc1ccc(C(=O)Nc2cccc(C(=O)c3ccccc3)c2)cc1` was 0.022; that for `CCC1(C)OC(=O)NN(c2ccc(C)cc2)C1(C)O` (stereo not drawn) was -0.143; that for `Cc1cc(C(F)F)n2ncc(C(=O)NCc3ccccc3C(F)(F)F)c2n1` was -0.759. The value for `CCOC(=O)CSCC(=O)Nc1ccc(S(=O)(=O)N2CCCCC2)cc1` was 0.13; that for `Cc1ccc(OCC(=O)N(c2ccccn2)C2CCCCC2)c(C)c1` was -0.0973; that for `O=C(Nc1ccc(F)cc1F)c1ccc(COc2c(F)c(F)cc(F)c2F)o1` was -0.425. `Nc1nonc1C(=O)NCCNS(=O)(=O)c1ccc(F)cc1` had a z-score of -0.403. The value for `O=C1C=C(NCC2CCCO2)C2(CCCCC2)O1` (stereo not drawn) was -0.0518; that for `COC(=O)CS(=O)(=O)c1nnc([C@H](Cc2ccccc2)NC(=O)OC(C)(C)C)o1` was -1.05. The value for `COc1ccc(OCC(=O)N2CCN(C(=O)COc3ccccc3)CC2)cc1` was 0.0899. The value for `CCOc1ccc(-c2csc(NC(=O)C3CCCO3)n2)cc1` (stereo not drawn) was -0.57; that for `CCOC(=O)C1=C(O)c2ccccc2C(=O)/C1=C\c1ccc(CC)cc1` was -0.196.

As to `Cc1ccc(CSc2nnc(-c3cccnc3)o2)cc1`, the z-score was -0.136. The value for `O=C(NCc1ccc(F)cc1)c1cc(-c2ccco2)on1` was 0.0586; that for `CCS(=O)CCSc1nc2ccccc2s1` (stereo not drawn) was 0.19; that for `Cc1cc(C)nc(SCC(=O)Nc2ccc(S(=O)(=O)N3CCCCC3)cc2)n1` was 0.159. With `CC1=C(C)/C(=N/OC(=O)c2cccc([N+](=O)[O-])c2)C=CC1=O`, the z-score is -0.204. The value for `COC(=O)c1nc(NC(=O)c2ccc(Br)cc2)n[nH]1` was -0.04; that for `O=C(O)Cc1ccc(N=Cc2c(O)ccc3ccccc23)cc1` was 0.101; that for `CC(CCc1ccccc1)C(=O)NO` (stereo not drawn) was -0.196. Take `CCc1cccc(NC(=O)CSCc2cc(=O)[nH][nH]2)c1`: the z-score was 0.767.

Consider `COC(=O)c1oc2ccccc2c1-n1cccc1`, for which the z-score is -0.249.

`CC(C)n1c(=N)c(C(=O)NCCc2ccccc2)cc2c(=O)n3ccccc3nc21` showed a z-score of 0.515. The value for `Cc1cc(C)cc(N(CC(=O)N/N=C/c2ccncc2)S(=O)(=O)c2ccccc2)c1` was -0.365; that for `Cc1cc2oc(C(=O)NCc3ccc4c(c3)OCO4)c(C)c2cc1C` was 0.066; that for `COC(=O)Nc1ccc(S(=O)(=O)N2CCCCC2C(=O)NCc2ccco2)cc1` (stereo not drawn) was -0.296. Turning to `CC(=O)Nc1ccc(Nc2cc(C)nc3c(-c4ccc(Cl)cc4)cnn23)cc1`, the z-score was 0.0199. The value for `Cc1ccc(CCN2CC(C(=O)N3CCN(c4ccc(F)cc4)CC3)CC2=O)cc1` (stereo not drawn) was 0.106. Consider `COCc1cc(=O)[nH]c2cc(NC(=O)C(F)(F)F)c(C)cc12`, for which the z-score is -0.236. The value for `Cc1cc(Cl)c(S(=O)(=O)NCC2CCCO2)cc1OCC(N)=O` (stereo not drawn) was -0.00128; that for `N#Cc1c(SCC(=O)N2CCCCC2)nsc1SCC(=O)N1CCCCC1` was -0.232; that for `O=C(O)c1ccc(NCc2cccnc2)cc1` was -0.24. The value for `COc1cccc(C(=O)Nc2ccc(S(=O)(=O)Nc3onc(C)c3C)cc2)c1` was -0.395; that for `N#CC1=C(N)N=C(SCc2cccc3ccccc23)C(C(N)=O)C12CCCCC2` (stereo not drawn) was -0.44. The value for `CC(C)NC(=O)c1ccc(-c2cccc(C(F)(F)F)c2)o1` was -0.135; that for `Cc1cc(=O)[nH]c(SCC(=O)NCCc2ccccc2)n1` was 1.96; that for `Cc1ccnc(SCCn2c(N3CCC(C)CC3)nc3c2c(=O)[nH]c(=O)n3C)n1` was -0.0416.

For `COCCn1cnc2cc(C)c(C)cc21`, the z-score was -0.527. `O=C(C1CCN(S(=O)(=O)c2cnc[nH]2)CC1)N1CCn2c1nc1ccccc12` registered a z-score of -0.128. The value for `O=C(CS(=O)(=O)c1cn(Cc2cccc(F)c2)c2ccccc12)N1CCCCC1` was -0.211; that for `CS(=O)(=O)N1CCN(c2ccccc2NC(=O)c2cccnc2)CC1` was -0.215; that for `CC(=Nc1ccccc1)C1=C(O)COC1=O` was 0.0875.

Compound `O=C(NNC(=S)NC1CCCCC1)c1ccc2c(c1)OCO2` displayed a z-score of 0.0724.

Regarding `O=C(c1ccc(Cn2cc([N+](=O)[O-])cn2)o1)N1N=C(C(F)F)CC1(O)C(F)F` (stereo not drawn), the z-score was -0.151. The value for `Cc1ccccc1NC(=O)CSCCN1C(=O)c2ccccc2C1=O` was -0.0122; that for `Cc1ccc(N2C(=O)C3ON(c4ccccc4)C(c4ccncc4)C3C2=O)c(C)c1` (stereo not drawn) was 0.0213. Take `CCCCCCCCCCS(=O)(=O)N/N=C/c1ccc(O)cc1`: the z-score is -0.604. The value for `Cc1ccc(C(=O)NC(NCc2ccco2)C(Cl)(Cl)Cl)cc1` (stereo not drawn) was -0.17; that for `Cn1c(-c2ccccc2O)cc2ccccc21` was 0.085; that for `Cc1ccc(OCC(=O)OC2CCS(=O)(=O)C2)cc1` (stereo not drawn) was -0.764. `COc1cccc(NC(=O)c2ccccc2-c2nc(-c3ccccc3)no2)c1` came in with a z-score of -0.435. As to `Cc1cc(C)c(S(=O)(=O)N2CCC(C(=O)NCc3ccc(Cl)cc3Cl)CC2)c(C)c1`, the z-score came to 0.412.

`CC1CCCC(C)N1C(=O)CSc1nc(N)c(-c2ccccc2)c(=O)[nH]1` (stereo not drawn) yielded a z-score of -0.0901. The value for `CCOC(=O)c1c(-c2ccc(C)o2)csc1NC(=O)CSc1nnc(C)s1` was -1.11; that for `CCCCc1cc(=O)oc2cc(C)c(CN3CCCC3)c(O)c12` was -0.825.

Turning to `CC1CC(C)CN(S(=O)(=O)c2cccc(C(=O)OCCN3CCCC3=O)c2)C1` (stereo not drawn), the z-score was -0.00255. The compound `C=C(C)c1cccc(C(C)(C)NC(=O)N2CCOCC2)c1` gave a z-score of 0.22. The value for `Fc1cc(Br)ccc1NC(=S)NCCc1ccccc1` was active: 7.09; that for `CS(=O)(=O)N(CC(=O)N1CCN(Cc2ccc3c(c2)OCO3)CC1)Cc1ccc(Cl)cc1` was 0.174; that for `COc1ccc(Cn2c(CCC(=O)NCc3ccco3)nc3cccnc32)cc1` was 0.0216.

Regarding `CCc1nc(N2CCN(C(=O)c3ccco3)CC2)c2oc3ccccc3c2n1`, the z-score is -0.615.

As to `COc1ccccc1NS(=O)(=O)c1cccc(C(=O)N/N=C2\CC(=O)CC(C)(C)C2)c1`, the z-score came to 0.104. The value for `CCCCCCOC(=O)C1=C(C)NC(=O)NC1c1ccc(O)cc1` (stereo not drawn) was -0.0425; that for `CCn1c(-c2ccccc2)csc1=Nc1ccc(S(=O)(=O)O)cc1` was 0.146; that for `CCOc1cc(/C=C2/C(=N)N3OC(C)=CC3=NC2=O)ccc1OCCOc1ccccc1` was 0.106. The value for `C/C(=N\NC(=O)c1c(Cl)c(C)nn1C)c1cccc(NC(=O)COc2ccccc2)c1` was -0.103. The value for `CCOC(=O)CSCC(=O)Nc1cc(C)ccc1C` was 0.0722; that for `CC(C)NC(=O)c1nn(C)c2ccccc12` was -0.161. In the case of `CCN(CC)CCNC(=O)Cn1nc(Cc2cccnc2)c2ccccc2c1=O`, the z-score is 0.0418. The value for `Cc1nc(NC2=NCN(CCc3ccccc3)CN2)nc2c(C)cccc12` was 0.814; that for `CCN(CC)C(=O)Oc1ccc2c(=O)c(-c3ccc(OC)cc3)coc2c1` was 1.26; that for `O=C(COc1cccnc1[N+](=O)[O-])Nc1ccccc1Sc1ccccc1` was 1.09.

Turning to `COc1cc(NC(=O)COC(=O)[C@@H]2CCCN2S(=O)(=O)c2ccc(Cl)cc2)cc(OC)c1OC`, the z-score was -0.518. The value for `COc1cc(NC(=O)c2ccccc2)c(OC)cc1NC(=O)CN1CCCCC1` was -0.781.

`CCOc1ccc(OCc2cccc(C(=O)N3CCCC3)c2)cc1` showed a z-score of -0.0798. In the case of `C=CCNC(=O)/C(C#N)=C/c1c(N2CC(C)OC(C)C2)nc2ccccn2c1=O` (stereo not drawn), the z-score was -0.188.
